Measured values: patent publication US6448273B1, “Orally active iron (III) chelators” (BTG International Limited, priority 1997, dated 2002)
Structures can show the parent of a compound that is named as a salt. The name of at least one read-out is uncertain.

Assay: Iron III Mobilisation Efficacy Assay in Rat: Oral Administration
Type: in vivo
Conditions: 59Fe ferritin labelled hepatocytes, 24 hours, dose not printed in this table (150-450 μmol/Kg)
Experimental: Control rats were given an equivalent volume of water. The rats were placed in individual metabolic cages and their urine and faeces collected. One hour after the administration they were allowed access to food, with no restriction on water being made throughout the study period. The investigation was terminated 24 hours after the ^59Fe ferritin administration when rats were sacrificed and their livers and gastrointestinal tracts, including all contents including faeces, were removed for gamma counting.

Row | Compound | Iron Mobilisation
1 | COCc1c(O)c(=O)cc(C)n1C [CP362] | 51.5 ± 3.7% (n = 5)
2 | Cn1ccc(=O)c(O)c1CO [CP364, 1-Methyl-2-hydroxymethyl-3-hydroxy-pyridin-4(1H)-one hydrochloride] | 8.44 ± 3.6% (n = 5)
3 | Cc1cc(=O)c(O)c(C(=O)NC(C)C)n1C [CP504, 1,6-Dimethyl-3-hydroxy-4(1H)-pyridinone-2-carboxy-(N-isopropyl)-amide hydrochloride] | 45.8 ± 6.1% (n = 5)
4 | COC(C)c1c(O)c(=O)cc(C)n1C (stereo not shown) [CP363, 1,6-Dimethyl-2-(1-methoxyethyl)-3-hydroxy-pyridin-4(1H)-one hydrochloride] | 73.5 ± 8.1% (n = 10)
5 | CNC(=O)c1c(O)c(=O)cc(C)n1C [CP502, 1,6-Dimethyl-3-hydroxy-4(1H)-pyridinone-2-carboxy-(N-methyl)-amide hydrochloride] | 62.4 ± 5.0% (n = 5)
6 | COCCNC(=O)c1c(O)c(=O)cc(C)n1C [CP506, 1,6-Dimethyl-3-hydroxy-4(1H)-pyridinone-2-carboxy-(N-2′-methoxyethyl)-amide hydrochloride] | 40.9 ± 7.1% (n = 5)
7 | CCC(OC)c1c(O)c(=O)cc(C)n1C (stereo not shown) [CP375, 1,6-Dimethyl-2-(1-methoxypropyl)-3-hydroxy-pyridin-4(1H)-one hydrochloride] | 72.0 ± 8.2% (n = 5)
8 | Cc1cc(=O)c(O)c(C(=O)NCCO)n1C [CP507, 1,6-Dimethyl-3-hydroxy-4(1H)-pyridinone-2-carboxy-(N-2′-hydroxyethyl)-amide hydrochloride] | 29.2 ± 6.3% (n = 5)
9 | O=c1ccn(CCO)c(C(O)c2ccccc2)c1O (stereo not shown) [Novartis bidentate ligand (3), reference compound] | 50.8 ± 10.3% (n = 5)
10 | Cc1cc(=O)c(O)c(C(C)O)n1C (stereo not shown) [CP361, 1,6-Dimethyl-2-(1-hydroxyethyl)-3-hydroxy-pyridin-4(1H)-one hydrochloride] | 48.4 ± 7.2%
11 | COCc1cc(=O)c(O)c(COC)n1C [CP388, 2,6-Dimethoxymethyl-1-methyl-3-hydroxypyridin-4(1H)-one hydrochloride] | 56.4 ± 6.4% (n = 10)
12 | Cc1cc(=O)c(O)c(CO)n1C [CP360, 1,6-Dimethyl-2-hydroxymethyl-3-hydroxy-pyridin-4(1H)-one hydrochloride] | 4.5 ± 1.1% (n = 5)
13 | Cn1c(CO)cc(=O)c(O)c1CO [CP387] | 8.9 ± 2.3% (n ± 5)
14 | CCn1ccc(=O)c(O)c1C(C)O (stereo not shown) [CP365, 1-Ethyl-2-(1-hydroxyethyl)-3-hydroxy-pyridin-4(1H)-one hydrochloride] | 54.5 ± 9.9% (n = 5)
15 | CCc1c(O)c(=O)ccn1CC [CP94, 1,2-diethyl-3-hydroxypyridin-4-one, reference compound] | 58.3 ± 9.4% (n = 10)
16 | CCn1c(C)cc(=O)c(O)c1COC [CP370, 1-Ethyl-2-methoxymethyl-3-hydroxy-6-methyl-pyridin-4(1H)-one hydrochloride] | 41.6 ± 7.5% (n = 5)
17 | CC(O)c1c(O)c(=O)ccn1CCCO (stereo not shown) [CP372, 1-(3-hydroxypropyl)-2-(1-hydroxyethyl)-3-hydroxy-pyridin-4(1H)-one hydrochloride] | 14.3 ± 4.5% (n = 5)
18 | CCOC(C)c1c(O)c(=O)cc(C)n1C (stereo not shown) [CP373, 1,6-Dimethyl-2-(1-ethoxyethyl)-3-hydroxy-pyridin-4(1H)-one hydrochloride] | 3.95 ± 4.8% (n = 5)
19 | Cc1cc(=O)c(O)c(C(=O)N(C)C)n1C [CP508, 1,6-Dimethyl-3-hydroxy-4(1H)-pyridinone-2-carboxy-(N,N-dimethyl)-amide hydrochloride] | 35.0 ± 9.8% (n = 5)
20 | O=c1ccn(CCCO)c(CO)c1O [CP366, 1-(3-hydroxypropyl)-2-hydroxymethyl-3-hydroxy-pyridin-4(1H)-one] | 11.7 ± 4.1% (n = 5)
21 | CCn1ccc(=O)c(O)c1CO [CP359, 1-Ethyl-2-hydroxymethyl-3-hydroxy-pyridin-4(1H)-one hydrochloride] | 33.3 ± 6.7% (n = 5)
22 | Cc1c(O)c(=O)ccn1C [CP20, reference compound] | 10.7 ± 3.0% (n = 10)
23 | CCC(O)c1c(O)c(=O)cc(C)n1C (stereo not shown) [CP374, 1,6-Dimethyl-2-(1-hydroxypropyl)-3-hydroxy-pyridin-4(1H)-one hydrochloride] | 60.4 ± 15.6% (n = 5)
24 | CCn1c(C)cc(=O)c(O)c1CO [CP369, 1-Ethyl-2-hydroxymethyl-3-hydroxy-6-methyl-pyridin-4(1H)-one hydrochloride] | 12.9 ± 2.3% (n = 5)
25 | O=C(OCCCn1ccc(=O)c(O)c1CO)c1ccccc1 [CP367, 1-[(3-Benzoyloxy)propyl]-2-hydroxymethyl-3-hydroxy-pyridin-4(1H)-one hydrochloride] | 56.0 ± 6.0% (n = 10)
